Measurements published in PubChem BioAssay (NCI).
Values joined by “and” are separate entries in the source; they are usually repeats but may differ in a detail not shown here. Identical values can stand only once.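 Values below derive from 48-hour exposures of cells grown in 96-well plates, with endpoints linearly interpolated between the two concentrations bracketing the appropriate inhibition level. GI50 = concentration required for 50% inhibition of growth. TGI: concentration producing complete growth inhibition.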 Peptide text beside a SMILES is read from it.

tested on: NCI-H322M lung; experiment: NCI-60 cell line screen, 48 h

Point of comparison: `O=C(CSc1ncc(-c2ccccc2)n1-c1ccccc1)Nc1ccc(-c2nc3ccccc3s2)cc1`, GI50 6.26 µM. Against it:
- CC[C@@]1(O)C(=O)NCc2c1cc1n(c2=O)Cc2cc3c(NC(C)=O)cccc3nc2-1 — higher, > 100 µM
- COc1cc(-c2nn(-c3cccc(NC(=O)CCN4CCN(C)CC4)c3)cc2-c2ccncc2)ccc1Cl — 2.2-fold lower, 2.87 µM
- Fc1ccc(-c2c(-c3ccncc3)[nH]c3nccnc23)cc1 — 2-fold higher, 12.7 µM
- CC1COCCN1CC#CCOC(=O)c1cc2ccccc2oc1=O (stereo not drawn) — higher, > 100 µM
- CC(C)[C@H](C(=O)O[C@@H]1/C=C/C(=O)O[C@@H](C)CCC/C=C/[C@@H]2C[C@H](O)C[C@H]21)N(C)C — 2.2-fold higher, 14 µM
- O=C1NC(=N[C@H](CO)c2ccccc2)S/C1=C\c1ccc2ncccc2c1 — 2.9-fold lower, 2.14 µM
- CN1CCN(c2ccc(Nc3ncc4cc5n(c4n3)C3(CCCCC3)CNC5=O)nc2)CC1 — 2.8-fold lower, 2.22 µM
- COc1ccc2c(c1)C(=O)c1c-2c(N2CCN(C(=O)CCNCCNCCO)CC2)nc2ccccc12 — 3.4-fold higher, 21.4 µM
- Cc1cc2c(cc1Cl)SC(C(=O)c1ccc(Cl)c(Cl)c1)NS2(=O)=O (stereo not drawn) — 8.1-fold higher, 50.9 µM
- Cn1cc(C2=C(c3c(S(C)=O)n(C)c4ccccc34)C(=O)NC2=O)c2ccccc21 (stereo not drawn) — within 1.5-fold, 4.38 µM
- COc1ccc(/C=C2/CN(CCC#N)C/C(=C\c3ccc(OC)cc3)C2=O)cc1 — within 1.5-fold, 4.6 µM
- N=C1C(c2nc3ccccc3s2)=C(O)CN1c1cc(Cl)cc(Cl)c1 — higher, > 100 µM

Point of comparison: `COc1ccc2c(c1)C(=O)c1c-2c(N2CCN(C(=O)CCNCCNCCO)CC2)nc2ccccc12`, TGI 42.1 µM. Against it:
- CC[C@@]1(O)C(=O)NCc2c1cc1n(c2=O)Cc2cc3c(NC(C)=O)cccc3nc2-1 — higher, > 100 µM
- Cc1cc2cc3ccccc3cc2c(=O)[nH]1 — not separable, > 10 µM
- N=C(N)SCc1cccc([N+](=O)[O-])c1 — higher, > 100 µM
- Clc1ccc(-c2nc3ccc4ccccc4c3c3c2CCCC3)cc1 — higher, > 100 µM
- Cc1cc2c(cc1C)C(=O)/C(=C/c1ccccc1C(=O)O)C2 — higher, > 100 µM
- COc1cc(-c2nn(-c3cccc(NC(=O)CCN4CCN(C)CC4)c3)cc2-c2ccncc2)ccc1Cl — 3.6-fold lower, 11.6 µM
- Fc1ccc(-c2c(-c3ccncc3)[nH]c3nccnc23)cc1 — not separable, > 25 µM
- CCOC(=O)C(NC(=O)c1ccccc1)(Nc1ccc(S(=O)(=O)Nc2cc(C)nc(C)n2)cc1)C(F)(F)F (stereo not drawn) — higher, > 100 µM
- ClCCCCOC1CCCCO1 (stereo not drawn) — higher, > 100 µM
- CC1COCCN1CC#CCOC(=O)c1cc2ccccc2oc1=O (stereo not drawn) — higher, > 100 µM
- Cc1ccc(S(=O)(=O)CC2(Br)CCc3ccccc3C2=O)cc1 (stereo not drawn) — higher, > 100 µM
- COC(=O)NC1C(C)OC(OC2C/C=C(/C)C3C=CC4C(OC5CC(OC6CC(OC7CC(O)C(O)C(C)O7)C(OC7CC(O)C(OC)C(C)O7)C(C)O6)C(O)C(C)O5)C(C)CC(C)C4C3(C)/C(O)=C3\C(=O)OC4(CC(C)C(CO)=CC4/C=C\2C)C3=O)CC1(C)[N+](=O)[O-] (stereo not drawn) — within 1.5-fold, 28.8 µM
- CC(C)[C@H](C(=O)O[C@@H]1/C=C/C(=O)O[C@@H](C)CCC/C=C/[C@@H]2C[C@H](O)C[C@H]21)N(C)C — higher, > 100 µM
- CCC(C)[C@@H]1NC(=O)[C@@H]2CCCN2C(=O)C(CC(O)CO)OC(=O)CCNC(=O)[C@H](C)N(C)C(=O)[C@H](C(C)C)N(C)C1=O (stereo partly drawn) (HELM PEPTIDE1{[CCC(C)[C@H](N[*:1])C(=O)[*:2]].[meV].[meA].[bAla].[O=C(C(CC(O)CO)O[*:1])[*:2]].P}$PEPTIDE1,PEPTIDE1,1:R1-6:R2$$$V2.0) — higher, > 100 µM
- O=C(N/N=C/c1ccc(Cl)cc1)c1ccccc1Nc1ccccc1C(=O)N/N=C/c1ccc(Cl)cc1 — higher, > 100 µM
- O=C1NC(=N[C@H](CO)c2ccccc2)S/C1=C\c1ccc2ncccc2c1 — 3.2-fold lower, 13 µM
- COC(=O)C(Cc1nc2ccccc2[nH]c1=O)C(=O)C(=O)Nc1ccc(F)cc1 (stereo not drawn) — higher, > 100 µM
- N#CC1CCCCC1NC1(C#N)CCCCC1 (stereo not drawn) — higher, > 100 µM
- O=S(=O)(Oc1ccc2ccccc2c1-c1c(OS(=O)(=O)C(F)(F)F)ccc2ccccc12)C(F)(F)F — higher, > 100 µM
- CN1CCN(c2ccc(Nc3ncc4cc5n(c4n3)C3(CCCCC3)CNC5=O)nc2)CC1 — 2.2-fold lower, 19.2 µM
- c1c2c(cc3c1OCO3)-c1cc3ccc4c(c3c[n+]1CC2)OCO4 — not separable, > 12.5 µM
- Cc1cc2c(cc1Cl)SC(C(=O)c1ccc(Cl)c(Cl)c1)NS2(=O)=O (stereo not drawn) — higher, > 100 µM
- Cn1cc(C2=C(c3c(S(C)=O)n(C)c4ccccc34)C(=O)NC2=O)c2ccccc21 (stereo not drawn) — not separable, > 25 µM
- COC(CC1(OC)OC(=O)C=C1N)OC (stereo not drawn) — higher, > 100 µM
- Cc1[nH]n(-c2ccccc2)c(=O)c1C(N(CCc1ccccc1)C1=NCC(C)S1)(C(F)(F)F)C(F)(F)F (stereo not drawn) — 1.9-fold higher, 79.9 µM
- Cc1ccc(NC(=O)C(=O)CC(=O)c2ccccc2)cc1C — higher, > 100 µM
- NC(=O)c1cc([N+](=O)[O-])cc([N+](=O)[O-])c1 — higher, > 100 µM
- C[N+]1(C)C[C@@H](O)C[C@@H]1C(=O)[O-] — higher, > 100 µM
- O=C1CC[C@@H](NC(=O)Cc2ccccc2)C(=O)N1 — higher, > 100 µM
- COc1ccc(/C=C2/CN(CCC#N)C/C(=C\c3ccc(OC)cc3)C2=O)cc1 — higher, > 100 µM
- Nc1c(Br)cc(-c2nc3ccccc3s2)cc1Br — higher, > 100 µM
- N=C1C(c2nc3ccccc3s2)=C(O)CN1c1cc(Cl)cc(Cl)c1 — higher, > 100 µM
- Cc1c(O)c(Br)c(C)c(O)c1Br (tested in a mixture with another compound) — within 1.5-fold, 33.4 µM
- O=C(CSc1ncc(-c2ccccc2)n1-c1ccccc1)Nc1ccc(-c2nc3ccccc3s2)cc1 — higher, > 100 µM
- CCO[C@]12CCC[C@H]1[C@@H]1C(=O)c3ccccc3C(=O)C1=C(C)O2 — higher, > 100 µM
- Cc1ccc([N+](=O)[O-])cc1S(=O)(=O)Nc1ccc(C2=NOC(c3ccccc3O)C2)cc1 (stereo not drawn) — higher, > 100 µM
- OCCCCCCCCCCCOc1ccc(C2OCC3(CC=CCC3)CO2)cc1 (stereo not drawn) — within 1.5-fold, 43.6 µM
- CC(=O)N(CCCCNC(=O)C(F)(F)F)CCCNC(=O)C(F)(F)F — higher, > 100 µM
- c1ccc([P+](c2ccccc2)(c2ccccc2)c2ccc(-c3ccc([P+](c4ccccc4)(c4ccccc4)c4ccccc4)cc3)cc2)cc1 — higher, > 100 µM
- O=C(c1ccccc1)N1CCC(Nc2nccs2)O1 (stereo not drawn) — not separable, > 10 µM
- N#C/C(C(=O)Nc1ccc(Cl)cc1)=C(/N)N1CCOCC1 — higher, > 100 µM

For `CN(C)CCCN1c2ccc([N+](=O)[O-])cc2CCc2cc([N+](=O)[O-])ccc21`, the TGI was 27.3 µM and 29 µM.
In the case of `COC(=O)c1ccc2c(C(=Nc3ccc(N(C)C(=O)CN4CCN(C)CC4)cc3)c3ccccc3)c(O)[nH]c2c1`, the TGI is reported as 56.2 µM and > 100 µM.

In the case of `COC(=O)c1ccc2c(C(=Nc3ccc(N(C)C(=O)CN4CCN(C)CC4)cc3)c3ccccc3)c(O)[nH]c2c1`, the GI50 is reported as 4.16 µM and 17.1 µM.
